# PubChem BioAssay AID1345083 (National Center for Advancing Translational Sciences (NCATS), 2018)
# Screen size: about 94,000 compounds; about 6,200 (6.6%) were called active. Inconclusive results, whose numbers are uncertain, are shown with a selection of clear calls. Calls follow the shape of the dose curve; as a rule, active = well fitted inhibition curve with a large enough effect; inconclusive = small, poorly fitted or top-dose-only effect; inactive = flat fitted curve, though single readings scatter. Potencies of inconclusive entries are doubtful fits and often do not repeat.
# Test: Cytotoxic Profiling in HEK 293 Cell Line of Diverse Libraries Using Quantitative High-Throughput Screening; also: nearly all actives have a fitted effect of over 60% in size
# Conditions: HEK 293 viability, ATP luminescence (CellTiter-Glo), 48-72 h; series mostly up to 115 µM
# Procedure, shortened: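 ATP-coupled CellTiter-Glo luminescence served as viability read-out, recorded 10 min after reagent addition at room temperature. HEK 293 cells, 250 cells/well, had been incubated with pintool-transferred compound for 48 or 72 hr at 37 degree Celsius.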
# Potency is read from the fitted curve at half-maximal effect; tags tell the direction and shape of the fitted curve.
row,Compound,Potency
1,CCc1ccccc1NC(=O)c1cc2c(=O)[nH]c(C)cn2n1,inactive
2,O=C(NCc1ccc(F)c(F)c1)c1nc2sccn2c1-c1ccccc1,"inconclusive: 79.4 µM [inhibitor, partial curve, poor fit]"
3,CCOC(=O)C1(Cc2ccccc2F)CCCN(C(=O)CCc2c[nH]c3ccccc23)C1 (centres undefined),active: 35.5 µM
4,CN1CCN(C(=O)c2ccc3c(c2)NC(C)(CCCCc2ccccc2)CO3)CC1=O (centres undefined),"inconclusive: 89.1 µM [inhibitor, partial curve]"
5,O=C(NCc1ccncc1)c1cc(-c2ccc(Cl)cc2Cl)c2cccn2n1,"inconclusive: 56.2 µM [inhibitor, partial curve, poor fit]"
6,Cc1nn(-c2ccccc2)c2c1C(C)N(CC1CN(C(=O)Nc3ccc(Cl)cc3)C1)C2=O (centres undefined),"inconclusive: 35.5 µM [inhibitor, full curve]"
7,Cc1ccc(-c2noc([C@@H]3Cc4nc[nH]c4CN3Cc3cccc(C#N)c3)n2)cc1,active: 89.1 µM
8,COCCNc1ncccc1-c1noc([C@@H]2CCCN2CC(C)(C)C)n1,"inconclusive: 89.1 µM [inhibitor, partial curve, poor fit]"
9,CC(C)c1nnc(C2CN(C(=O)c3ccc4ccccc4n3)CC23CCOCC3)o1 (centres undefined),inactive
10,COc1ccc2[nH]c3c(c2c1)CCN(C)C31CCN(C(=O)c2ccccc2F)CC1,"inconclusive: 12.6 µM [inhibitor, full curve, poor fit]"
11,Cc1cc(C)cc(-c2ccc(CN3CCCC(NC(=O)c4ccccc4F)C3)cc2)c1 (centres undefined),active: 79.4 µM
12,O=C(C1CCCC1)N1CCCC2(CNc3ncccc3[S+](=O)([O-])N2)C1 (centres undefined),inactive
13,Cc1ccccc1CN1Cc2nc(N3CCCC3)ccc2OCC1=O,"inconclusive: 89.1 µM [inhibitor, partial curve]"
14,COCCNC(=O)c1cnc2c(c1)N(C(=O)Cc1cn(C)c3ccccc13)CCC2,"inconclusive: 79.4 µM [inhibitor, partial curve, poor fit]"
15,O=C(c1cccs1)N1CCC(n2cc(-c3nc(-c4ccccc4)no3)nn2)CC1,active: 35.5 µM
16,O=C(O)CCC(=O)N1CCCC2(Cc3ccccc3N(C(=O)C3CCCC3)C2)C1 (centres undefined),inactive
17,CCN1c2cc(C(=O)NCc3ccccc3)ccc2C(=O)N2CCCCCC21 (centres undefined),active: 39.8 µM
18,O=C1CCN(S(=O)(=O)c2ccc3c(c2)CCC3)CCCC(C(=O)NCc2ccccc2)CCN1 (centres undefined),inactive
19,C[C@H]1[C@@H]2[C@@H](O)C([C@H](C)C(=O)NC3CCCCC3)CC[C@@]2(C)CC[C@@H]1NC(=O)Cc1ccccc1 (some centres undefined),"inconclusive: 50.1 µM [inhibitor, partial curve, poor fit]"
20,c1ccc(-c2cc3c(cn2)CN(Cc2c[nH]c4ccccc24)CCN3)cc1,active: 44.7 µM
21,O=C(CCCc1ccccc1)NC1CCN(C(=O)N2CC3CC(C2)[C@H]2CCCC(=O)N2C3)CC1 (some centres undefined),inactive
22,COc1ccccc1Nc1ccnc(N2CCC(C(=O)NCCc3ccc(F)cc3)CC2)n1,"inconclusive: 22.4 µM [inhibitor, full curve, poor fit]"

row,Compound,Potency
1,O=C1CO[C@H]2CCN(Cc3cccnc3)CC[C@@H]2N1Cc1ccccc1,"inconclusive: 126 µM [inhibitor, single point]"
2,COc1ccc(CNc2cc(Cl)nc3ccnn23)cc1,active: 70.8 µM
3,COc1cccc(C(=O)NC2CCN(c3ccc4nnc(-c5ccccc5)n4n3)CC2)c1,"inconclusive: 50.1 µM [inhibitor, partial curve, poor fit]"
4,COc1ccc(-c2cnc(Nc3ccc(CN4CCN(C)CC4)cc3)c3c2CCO3)cn1,"inconclusive: 56.2 µM [inhibitor, full curve, poor fit]"
5,COc1ccc(F)cc1-c1ccc(CN2CCCCC2C(=O)NCc2ccc(C(F)(F)F)cc2)cc1 (centres undefined),"inconclusive: 22.4 µM [inhibitor, full curve]"
6,c1csc(CN2Cc3[nH]cnc3C[C@H]2c2nc(-c3ccncc3)no2)c1,"inconclusive: 100 µM [inhibitor, partial curve]"
7,Cc1noc([C@@H]2CN(C(=O)c3cscn3)C[C@H]2C(N)=O)n1,inactive
8,O=C(Cc1ccccc1C(F)(F)F)N1CCC2(CC1)[C@H](O)C[C@@H]2O,inactive
9,Cc1nnc(-c2cc(-c3cccc(F)c3)ccn2)n1Cc1ccccc1,active: 89.1 µM
10,CCCc1noc(-c2cn(C3CCN(C(=O)c4cccs4)CC3)nn2)n1,inactive
11,COc1ccccc1-c1nccc2c(=O)cc(C3=CCOCC3)oc12,active: 63.1 µM
12,C[S+](=O)([O-])c1ccc(-c2nc(C(=O)NCc3ccc(F)cc3)n3ccccc23)cc1,inactive
13,COc1ccc(C)cc1NC(=O)Cn1c(-c2ccc(Cl)cc2)nc(C)c(CCO)c1=O,"inconclusive: 89.1 µM [inhibitor, single point]"
14,Cc1noc(C)c1CC(=O)NC1CCCc2c1[nH]c1ccc(F)cc21 (centres undefined),"inconclusive: 50.1 µM [inhibitor, partial curve, poor fit]"
15,CC#CCn1cc2c3c(cccc31)[C@H](CC(C)C)N[C@H](C(=O)NC1CC1)C2,active: 89.1 µM
16,CN1CCCCCCN(S(=O)(=O)c2cccc(F)c2)[C@H]2CCC[C@H]2C1=O,inactive
17,Cn1ncc2c(C(=O)Nc3cccc(C(F)(F)F)c3)cc(-c3ccccc3C(F)(F)F)nc21,active: 22.4 µM
18,Cc1nnc2ccc(N3CCCC(NC(=O)C4CCCC4)C3)nn12 (centres undefined),"inconclusive: 126 µM [inhibitor, single point]"
19,O=C1NC(=NC2CCCC2)C2(CCCN(Cc3ccc(F)cc3)C2)N1c1cc(F)cc(F)c1 (centres undefined),"inconclusive: 56.2 µM [inhibitor, partial curve, poor fit]"
20,O=[S+]1([O-])NCC2(CCCN(Cc3cnccn3)C2)Oc2ncccc21 (centres undefined),inactive
21,CCOc1ccc(S(=O)(=O)N2CCC(C3CCN(C(C)=O)CC3)C2)cc1 (centres undefined),"inconclusive: 89.1 µM [inhibitor, single point]"
22,O=C1CCN(C(=O)Cc2cccc(F)c2)CCCC(c2nc(-c3cccnc3)no2)CCN1 (centres undefined),"inconclusive: 79.4 µM [inhibitor, partial curve, poor fit]"
